Measured values reported in the supplement of paper PMC12632987.
In all, about 2,300 sequences were measured (“median log2 fold change of GCK-ALFA target abundance (FLAG IP / Myc IP barcode read proportion)”: median about 0.095, lowest 2% from about -0.47 on). The list shows a part of the results.

B1: LC3A_28_1201 (protein)
chain: SRTLKSLEEALKKAEEALKKGEEAVITVTVDGDITEEELERVLEGLERIAEIAAKSKKISIIIDLVGGVPEEFQNRIIKKAEELEKKYPNVNIIIALEEE
B2: LC3A_132_279 (protein)
chain: EEKKKKEAIEKVKKLAKEAEKNIDNEEKVEKLIKELEKYLEKVEKEESPEVQAAVFETAAEEYEKLAKLAEAAGKEEIALELDSKAIEYASRSLRAKELI
B3: LC3A_3_1633 (protein)
chain: MEEKVEERLKKLKEAGASEETLKAFRETAEKLIERGYYKALETLIEETEKLLDLPDELLLDFFKEVLEYLETNDDDEETVIEKIKEIARTTRNEGEIIEL
B4: LC3A_3_1797 (protein)
chain: SEEKLEKLLKELKEAGKSEETIEAARKTLEALIEKGYEEAFETFVEELRELKDIPDEILLEMLKEVLELIENEDLSEEELTEEIKELARLAKLESEIEEL
B5: LC3A_28_970 (protein)
chain: MDIDEELEKALEKAREAREKGEPTVITIKVPGTTDEEDTEKVIETLEEIAEILKDIPGAAIIIDIDGDVDEELITKLMNKAEEIEKKYPNITVIFALDEK
B6: LC3A_13_337 (protein)
chain: TVKLEVETAEELREKGTAALEAHPGETIEITATVKDFEEAEKIAEEVGKLIDLAAEKGNSLVITIKGKRDEVLYASLLIGSEYYEKINEVDVTINEEILP
B7: LC3A_free_8_2496 (protein)
chain: SRQETVNEILKKIDEAEKRHVELAKKLGLSELDILDLELEYGSIKSSIISNSDKPMEEIIKTIKEDMERLIKLAAELSPELAEKAKEDLKEILELLEKKK
B8: LC3A_free_46_2310 (protein)
chain: VKAEISIDLLHDDEEVLKAAVEEIVKSIKEIAEKYGLEVEIKVSFSKDPDGSYFAHIDIILKGETEETVKKAVNEIIDEIDKIAEKYGVSYIISVEIEKE
B9: LC3A_free_8_2544 (protein)
chain: SLQELIQEASEAVDKAEEEVEKKAKELGLDPLDINYLLLLLGEAAIEIQEAATDNFEEEFNEALKTLKEAEKEAKKIHPEIAAIVAKLVAKLEEIKKKAE
B10: LC3A_free_39_2275 (protein)
chain: SAAERAAALARAEALAASLSPEGAALLRRIMAEFADDPEAIRRITEALERAKAEGADMLEILKRALAVVEEGRAAGLSREEIAERVLEEIEDLINLIPLD
B11: LC3A_59_2018 (protein)
chain: SEELEALRERLREAVDDIDAFVAIVREGLERFRDDPERVRALLRAAMDVIVEELGMDPEEAEKTLAEMLAIWETEPDKEEAIARVTELVRDTLLLTPIEE
B12: LC3A_free_8_2490 (protein)
chain: KSQELANKGSQLLDEMEEEIEKEAKKLGASELDILDLSLLIGSTIAEAYSLSDKSPEEIIEKIKEGLKELIEEAKKISEELAKKVEELSKEILKELEELK
B13: LC3A_28_947 (protein)
chain: MSTEEEVEEQLKKAKEAAKKKEPVVITLTVTGEDSQEEVQLVIEGMKEIAELLKDIKGSAIIVDVEAGVPQEHVDLIADEGEEIEKKYPNINVIIALDED
B14: LC3A_127_171 (protein)
chain: ELEELLEEALEVAEELSELLEEEDYDFEEIEELTRELLELAKKILELDPRAEDALETAEEMLELLEEMKEADEAEQKELKEHLLMLTEGLIIELLGLQLK
B15: LC3A_28_1175 (protein)
chain: SELDKSIEKALAEAKEAAEKGEAAAVTITVPGTATEEEIEKVIKAIYEIAELLKGIPGAAIIVDIESGVSQENIDKLLEAGEEVEEKYPDVNVIFALDED
B16: LC3A_free_0_2095 (protein)
chain: KTTVVEVVMISDKEVSEEDVKKIKERLEKLAKEISKKYGAKVEVKVSKVDGRTVFTVKVKKEGLSIDEGLEIAREIADLLEEEAKELGIDATIYESVYYE
B17: LC3A_147_389 (protein)
chain: YIVNVDIDILTKNAEEEVIKSFEELKKELEKKGYKVKLEIETEKLDENTTYIDINITIEAPTLEKAEEAANLVLDHVDELEEKLKDKILGSLISVEIEEK
B18: LC3A_3_1451 (protein)
chain: GEELIEEAEKILKEFGRSEETIEAARELLEALKEKGYEEAMKTFVEELKKLKDVSSEIVLAMLKEIKHVVETEDLSEEEVVEVIKSEAAAAKSEQEIEEL
B19: LC3A_28_746 (protein)
chain: MTIAEQIAEAKAAAKAAAAAGESQVITITVPGTADQADIDRVIAGMKEIAEILKDVKDQAIVIDLDGQLPQEHQQRLMDAAEEIEKKYPNVTVIIALDEE

These binders were tested against MAP1LC3A, Q9H492 (assay: median log2 fold change of GCK-ALFA target abundance (FLAG IP / Myc IP barcode read proportion) (log2 ratio); each designed protein is fused to an ALFA-tag nanobody in HEK293 cells to bring the named protein to FLAG-tagged glucokinase (GCK); Myc marks an untargeted standard; higher = target protein stabilised (more abundant)). Settings: target protein: 3xFLAG-MCP-GCK-ALFA reporter; HEK293 landing pad (RPLP).
Outline: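 HEK293 landing-pad cells received a recombined binder library fused to the ALFA nanobody and were induced with 2 μg mL^−1 doxycycline, then transfected with a plasmid encoding a FLAG-tagged target and a Myc-tagged standard. Lysates were collected after 48 h for anti-FLAG and anti-Myc immunoprecipitation, and the circular RNA barcodes were reverse transcribed, amplified and sequenced. Target abundance for each binder is the median log2 ratio of FLAG to Myc barcode read proportions. Barcodes had to reach a proportion of at least 10^−7 in both replicates, each binder needed at least 3 barcodes per replicate, a pseudocount of 10^−6 was applied, and the two replicates were pooled.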

Binder	median log2 fold change
B1	-0.246
B2	0.341
B3	0.174
B4	-0.12
B5	0.154
B6	0.13
B7	0.426
B8	0.181
B9	-0.0689
B10	-0.12
B11	-0.587
B12	0.119
B13	0.0563
B14	-0.77
B15	-0.346
B16	-0.251
B17	-0.162
B18	0.4
B19	0.229
